Experimental data taken from the RNAGym collection of RNA variant scans (doi:10.1073/pnas.2313332121).
This sample is rich in variants without activity.

B1: TPR 5TU (parent)
chain: GGAUCUUCUCGAUCUAACAAAAAAGACAAAUCUGCCACAAAGCUUGAGAGCAUCUUCGGAUGCAGAGGCGGCAGCCUUCGGUGGCGCGAUAGCGCCAACGUUCUCAACUAUGACACGCAAAACGCGUGCUCCGUUGAAUGGAGUUUAUCAUG

Variants of: B1
Test: polymerase ribozyme fitness, log enrichment relative to wild type (log ratio); higher = more active; in vitro selection for triplet polymerase activity
How it was run: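 Mutant libraries for each subunit of a heterodimeric triplet polymerase ribozyme were made by PCR and then transcribed. Each library underwent one round of in vitro selection in triplicate: annealing with a biotinylated primer, the partner subunit and triplets, frozen incubation at −7 °C, gel excision of extended constructs, streptavidin-bead capture and RT-PCR. Input and output libraries were Illumina-sequenced, and only genotypes with ≥10 input reads and ≥1 read per output were kept. Fitness is the logarithm, base 2, of genotype enrichment over wild-type enrichment, computed from inverse-variance-weighted replicate averages.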

| Variant | polymerase ribozyme fitness (log ratio) |
| --- | --- |
| GGAUCUUCUCGAUCUAACAAAAAAGACAAAUCUGCCACAAAGCGUGAGAGCAUCUUCGGAUGCAGAGGCGGCAGCCUUCGGUGGCGCGAUAGCACCAACGUUCUGAACUAUGACACGCAAAACGCGUGCUCCGUUGAAUGGAGUUUAACAUG | ≤ -4.2 |
| GGAUCUUCUCGAUCUAACAAAAAAGACAAAUCUGCCACAAAGCUAGACAGCGCCUUCGGAUGCAGAGGCGGCAGCGUUCGGUGGCGCGAUGGCGCCUAGGUUCUCAACUAUGACACGCAAAACGCGUGCUCCGUAGAAUGGAGUUUAUCAUG | ≤ -4.2 |
| GGAUCUUCUCGAUCUAACAAAAAAGACAAAUCUGCCACAAAGCUAGAGAGCAUCUUGGGAUGCAGAGGCGGCAGCCUACUGUGGCGCGAUAGCGCCAACGUUAUCAACUAUGACACGGAAAACGCGUGCUCCGUUGAAUGGAGUUUAUCAUG | ≤ -4.2 |
| GGAUCUUCUCGAUCUAACAAAAAAGACAAAUCUGCCACAAAGCUAGAGAGUAUCUUCGGAUGCAGAGGCGGCAACCUUCGGUGGCGCGAUAGCGACAACGUUCUCAACUAUGACACGCAAAACGCGUGCUCCGUGGAAUGGAGUUUAUCAUG | ≤ -4.2 |
| GGAUCUUCUCGAUCUAACAAAAAAGACAAAUCUGCCACAAAGCUAGAAAGCAUCUUCGGAUGCAAAGGCGGCUGCCUUCGGUGGCGCGAUAGAGCCAACGUUCUCAACUAUGACACGCAAAACGCGUGCUCCGUUGGAUGGAGUUUAUCAUG | ≤ -4.2 |
| GGAUCUUCUCGAUCUAACAAAAAAGACAAAUCUGCCACAAAGCUAGAGAGCAUCUUCGGAUGCAGAGGCGGCAGCCUUCGGUGGCGUGAUAGCGCCAACGUUCUCAACUAUGACUCGCAAAACGUGUGCUCCGUUGAAUGGAGUUUAUCAUG | ≤ -4.2 |
| GGAUCUUCUCGAUCUAACAAAAAAGACAAAUCUGCCACAAAGCGUGAGACCAUCGUCGGAUGCAGAGGCGUCAGCCUUCGGUUGCGCGAUCGCGCCAACGUUCUCAACUAUGACACGCAAAUCGCGUGCUCCGUUGAAUGGAGUUUAUCGUG | ≤ -4.2 |
| GGAUCUUCUCGAUCUAACAAAAAAGACAAAUCUGCCACAAAGCUAGCGAGCAUCUUCGGAUGCAGAGGCGGCAGCCUUCGGUGGCGCGAUAGCGCCAACGUUCUCAACUAUGACACGCAAAACGCGUGCUCCGUUGAAUGGAGUUUAUCAUG | -3.93 |
| GGAUCUUCUCGAUCUAACAAAAAAGACAAAUCUGCCACAAAGCUAGUGAGCAUCUUCGGAUGCACUGGCGGCAGCCUUCGGUGGCCGGAUAGCGCCAACGUUCUCAACUAUGACACGCAAAACGCGUGCUGCGUUGAAUGGAGUUUAUCAUG | ≤ -4.2 |
| GGAUCUUCUCGAUCUAACAAAAAAGACAAAUCUGCCACAAAGCGUGAGAGCAUCUUCGGAUGCAACGGCGGCAGCCUUCGGUGGCGCGAUGGCGCCAACGUUCUCAACUAUGACACGCAAAACGCGUGCUCCGUUGAAUGGAGUUUAUCAUG | ≤ -4.2 |
| GGAUCUUCUCGAUCUAACAAAAAAGACAAAUCUGCCACAAAGCUAGAGAGCAUAUUCGGAUGCAGAGGCGGCAGCCUUCGGUGGCGAGAUAGCGCCAACGUUCUCAACUAUGACACGCAAAACGCGUGCUCUGUUGAAUGGAGUUUAUCAUG | ≤ -4.2 |
| GGAUCUUCUCGAUCUAACAAAAAAGACAAAUCUGCCACAAAGCUAGAGGGCAUCUUCGGAUGCAGAGGCGGCAGCCUUCGGUGGCGUGAUAGCGCCAACGUUCUCAACUAUGUCACGCAAAACGCAUGCUCCGUUGAAUGGAGUUUAUCAUG | ≤ -4.2 |
| GGAUCUUCUCGAUCUAACAAAAAAGACAAAUCUGCCACAAAGCUAGAGACCAACUGCGGAUGCAGAGGCGGCAGCCUUCGGUGGCGCGAUAGCGCCAACGUUCUCAAGUAUGACACGCAAAACGCGUGCUCCGUUGAAUGGAGUUUAUCAUG | ≤ -4.2 |
| GGAUCUUCUCGAUCUAACAAAAAAGACAAAUCUGCCACAAAGCUAGAGAGCCUCUUCGGAUGCAGAGGCGACAGCCUUCGGUGGCGCGAUAGCGCCAAAGUUCUCAACUAUGACACGCAAAACGCGUGCUCCUUUGAAUGGAGUGUAUCAUG | ≤ -4.2 |
| GGAUCUUCUCGAUCUAACAAAAAAGACAAAUCUGCCACAAAGCUAGAGAGAAUCUUCGGAUGCAGAGGCGGCAGCCUUCGGUGACGCGAUAGCGCCAACGUUCUCAACUAUGACACGCAAAACGCGUGCUCCGUUGAAUGGAGUUUAUCAUG | ≤ -4.2 |
| GGAUCUUCUCGAUCUAACAAAAAAGACAAAUCUGCCACAAAGCUAGAGAGCCUCUUCGGAUGCAGAGGCGGCAGACUUCGGUGGCGAGAUAGCGCCAACGUUCUCAACUAUGACACGCAAAACGCGUGCUCCGUGGAAUGGAGUUUAGCAUG | ≤ -4.2 |
| GGAUCUUCUCGAUCUAACAAAAAAGACAAAUCUGCCACAAAGCUAGAGAGCAUCUUCGGAUGCAGAGGCGGCAGCCUUCGGUGGCGCGAUAGCGCCAACGUUCUCAACUAUGACACGCAAAACGCGUGCUCCGUUGAAUGGGGUUUAUCAUG | -2.94 |
| GGAUCUUCUCGAUCUAACAAAAAAGACAAAUCUGCCACAAAGCGUGAGAGCAUCUUCGGAUGCAGAGGCGGCAGCCUUCGGUGGCGUGAUAGCGCAAACGUUCUCAACUAUGACACGCAAAACGCGUGCUCCGUUGAAUGGAGUUUAUCAUG | ≤ -4.2 |
| GGAUCUUCUCGAUCUAACAAAAAAGACAAAUCUGCCACAAAGCUAGAGAGCCUCUUCGGAUGCAGAGGAGGCAGCCUUCGGUGGCGCGAUAGCGCCAACGUUCUCAACUAUGAUACGCAAAACGCGUGCUCCGUUGAAUGGAGUUUAUCAUG | ≤ -4.2 |
